We go through 72 molecules from PubChem BioAssay AID488969 (Vanderbilt High Throughput Screening Facility, 2010).

Structures are written as SMILES. The full ranking holds about 110,000 compounds; the median of “z-score” is about -0.1, and the highest 2% start at about 2. The list shows a part of the results. Calls of active or inactive are those of the source.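 The calls were made as follows: active = z-score in the third read window above 3 or below -3; inactive = the rest.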

This assay has as its target Metabotropic glutamate receptor 8 (Rattus norvegicus) (UniProt P70579). As to the kind of experiment: rat mGluR8 modulators via GIRK flux, primary screen, cell-based, thallium flux, HTS (AID 488969). Conditions: HEK293 rat mGluR8, GIRK (G protein-gated inwardly rectifying potassium channel) thallium flux, FluoZin2; at 10 µM; stronger effect = higher value; submaximal glutamate (EC20) added with thallium.
Sequence of UniProt P70579 (P70579 whole entry, looked up): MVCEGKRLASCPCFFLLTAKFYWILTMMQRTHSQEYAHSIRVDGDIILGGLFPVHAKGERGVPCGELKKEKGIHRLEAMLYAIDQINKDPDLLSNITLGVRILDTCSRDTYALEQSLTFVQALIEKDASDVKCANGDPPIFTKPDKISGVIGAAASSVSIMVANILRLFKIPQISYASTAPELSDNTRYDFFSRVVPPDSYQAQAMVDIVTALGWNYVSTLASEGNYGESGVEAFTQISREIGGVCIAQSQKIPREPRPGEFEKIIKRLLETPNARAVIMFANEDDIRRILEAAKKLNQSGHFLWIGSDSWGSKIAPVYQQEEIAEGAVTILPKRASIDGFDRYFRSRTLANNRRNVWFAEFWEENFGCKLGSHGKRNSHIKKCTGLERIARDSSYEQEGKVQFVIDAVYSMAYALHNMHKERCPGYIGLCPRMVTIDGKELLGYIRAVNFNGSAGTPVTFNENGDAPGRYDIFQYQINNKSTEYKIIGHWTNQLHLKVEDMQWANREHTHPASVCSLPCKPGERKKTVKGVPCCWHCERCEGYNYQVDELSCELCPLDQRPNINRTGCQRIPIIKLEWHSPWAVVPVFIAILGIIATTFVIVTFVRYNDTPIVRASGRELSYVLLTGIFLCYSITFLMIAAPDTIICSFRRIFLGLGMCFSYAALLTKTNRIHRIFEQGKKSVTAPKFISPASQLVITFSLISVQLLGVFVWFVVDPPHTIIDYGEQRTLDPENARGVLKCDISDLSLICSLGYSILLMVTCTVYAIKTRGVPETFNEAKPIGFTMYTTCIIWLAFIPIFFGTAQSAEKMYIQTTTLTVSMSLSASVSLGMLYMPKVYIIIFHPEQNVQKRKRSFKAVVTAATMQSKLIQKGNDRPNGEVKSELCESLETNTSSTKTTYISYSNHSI
With `Cn1c2ccc(CC(=O)O)cc2c2cc(CC(=O)O)ccc21`, the z-score is -0.262.

Take `COc1ccc(C(=O)C[n+]2ccc3c(c2)nc(-c2ccccc2)n3C)cc1`: the z-score worked out at 0.249.

In the case of `Cn1nccc1C(=O)Nc1ccc(OC(=O)c2ccnn2C)cc1`, the z-score is 0.139.

In the case of `Cc1cc(C)c(-c2cc(C(F)(F)F)no2)c(=O)[nH]1`, the z-score is 0.0168.

With `O=[N+]([O-])c1ccccc1S(=O)(=O)N1CCCCC1`, the z-score worked out at 0.536.

`CCN(CC)CCn1c(NCc2ccc(OC)cc2)nc2ccccc21`: the z-score turned out to be 0.937.

In turn, `CC(=Nc1ccc(C)cc1)c1sc2ccccc2c1O` had a z-score of 0.0505.

With `CCOC(=O)N1CCC2(O)CCCCC2C1c1ccc(F)cc1` (configuration not stated), the z-score is -0.478.

As to `Cc1ccc(C(=O)CC(=O)COc2ccc(Cl)cc2)cc1`, the z-score is active: 5.07.

In turn, `COc1ccc(C(=O)Oc2ccc3c(c2)OCO3)cc1OC` yielded a z-score of 0.246.

With `C=CCNC(=S)N/N=C(\C)c1cc(OC)c(OC)c(OC)c1`, the z-score is -0.183.

In turn, `CC(C)Cn1c(-c2ccc(F)cc2)n[nH]c1=S` had a z-score of 0.522.

`COc1ccc(NC(=O)c2ccc(F)cc2)cc1S(=O)(=O)Nc1cc(C)ccc1Br` yielded a z-score of 0.11.

Consider `Clc1ccc(Cn2ncc3c(N4CCCC4)ncnc32)cc1`, for which the z-score was -0.709.

For the molecule `O=C1CN(C(=O)COc2ccccc2F)c2ccccc2N1`, the z-score was -0.0686.

In turn, `CCC(c1nc2ccccc2c(=O)n1CCCn1ccnc1)N1C(=O)c2ccccc2C1=O` (configuration not stated) displayed a z-score of 0.431.

As to `CCOC(=O)C1=C(C)NC(=O)C1(NC(=O)c1cccnc1)C(F)(F)F` (configuration not stated), the z-score was -0.663.

As to `CCc1ccc(/C=C/C(=O)C2C(=O)c3ccccc3C2=O)cc1`, the z-score was active: 3.92.

Take `COc1ccccc1C1C2=C(COC2=O)Nc2cc3c(cc21)OCO3` (configuration not stated): the z-score is -0.0142.

As to `Cn1cccc1CC(=O)N/N=C\c1c2ccccc2cc2ccccc12`, the z-score is -0.172.

With `Cc1ccc(C(=O)Nc2cc([N+](=O)[O-])ccc2F)s1`, the z-score is 0.0378.

The molecule `CCOCCCn1c(SCC(=O)NC(C)C)nc2ccccc2c1=O` registered a z-score of 0.328.

`CCc1ccccc1N(C)C(=O)CCc1nc(-c2ccc(C)cc2)no1` displayed a z-score of 2.44.

For `O=C(CCCOc1ccc(Cl)cc1Cl)NN1CCOCC1`, the z-score was -0.177.

On to `COc1ccc(Br)cc1/C=C/C(=O)Nc1ccc(C)cc1`, for which the z-score is -0.218.

On to `Cc1nn2cc(-c3ccc(Cl)cc3)nc2s1`, for which the z-score is -0.0344.

As for `C/C(=C(\C#N)C(=O)NCc1ccccc1)N(C)C`, the z-score was -0.0804.

Regarding `O=C(Nc1cc(N2CCOCC2)ncn1)Nc1cccc2ccccc12`, the z-score was 0.125.

As to `O=C(COC(=O)c1ccc(S(=O)(=O)Nc2ccccc2)cc1)NCCN1C(=O)CSC1=O`, the z-score came out at 0.478.

Consider `O=S(=O)(N/N=C/c1cccc(OC2CSC2)c1)c1ccccc1`, for which the z-score was -0.554.

In the case of `COc1ccc(-c2c(C)nn3c(N4CCC5(CC4)OCCO5)cc(C)nc23)cc1OC`, the z-score is -0.26.

`CCCCOc1ccc(C2(C(=O)O)CCCC2)cc1`: the z-score was -0.112.

Regarding `O=C(NCc1nc2ccccc2[nH]1)c1ccco1`, the z-score was -0.132.

Turning to `O=C(Nc1ccccc1Cl)c1ccccc1Oc1ccc(C(F)(F)F)cc1[N+](=O)[O-]`, the z-score is -0.11.

On to `CC1CCN(S(=O)(=O)N2CCC(C(=O)N3CCC(N(C)CC4CCCO4)CC3)CC2)CC1` (configuration not stated), for which the z-score is -0.0208.

Take `O=C(OCC(=O)c1ccccc1Br)c1ccccn1`: the z-score worked out at 0.583.

As for `COc1ccccc1CNC(=O)c1c(-c2ccccc2)nn(-c2ccccc2)c1C`, the z-score is -0.592.

On to `O=C(COc1ccccc1)Nc1ccc(S(=O)(=O)N2CCCCCC2)cc1`, for which the z-score turned out to be 0.0536.

`Cc1ccc(-c2nc(N)n(C(=O)c3cccnc3)n2)cc1` displayed a z-score of 0.477.

In the case of `C=C(C)C1CC=C(C)/C(=N/NC(=O)c2ccc(NC(=O)CC)cc2)C1` (configuration not stated), the z-score is -0.376.

As for `COc1ccc(CCNC(=O)CCC2COc3ccccc3O2)cc1OC` (configuration not stated), the z-score was -0.187.

Turning to `O=C(N=C1c2ccccc2CN1c1ccc(F)cc1)c1ccc(Cl)nc1`, the z-score was -0.285.

For the molecule `O=C(CCCc1c[nH]c2ccccc12)N1CCN(S(=O)(=O)c2cccs2)CC1`, the z-score is -0.212.

In turn, `O=C/C(=C\Nc1ccc(Cl)cn1)c1nc2ccccc2o1` gave a z-score of 0.831.

Regarding `COc1cccc(-c2nc(N3CCN(c4ccccc4)CC3)c3ccccc3n2)c1O`, the z-score is -0.347.

Take `COC(=O)CCCNC(=O)OCc1ccc([N+](=O)[O-])cc1`: the z-score was -0.0181.

Consider `c1ccc2c(Nc3nc4c(s3)CCCC4)cccc2c1`, for which the z-score was determined as 0.0222.

With `COc1ccc(-n2nnc3c(=O)n(CC(=O)N4CCCC4)cnc32)cc1`, the z-score is -0.175.

Consider `CCCCCCOC(=O)Cc1c(C)nc(-c2ccccc2)[nH]c1=O`, for which the z-score is -0.0971.

As for `COC(=O)c1cc(NC(=O)C2COc3ccccc3O2)cc(C(=O)OC)c1` (configuration not stated), the z-score is -1.1.

`CCCN1C=CC(=C/C=C(\C#N)C(=O)OCC)C=C1`: the z-score was -2.8.

For `O=C(Cc1ccccc1)N/N=C/c1cc(Br)c(Br)o1`, the z-score was -0.248.

`COC(=O)Cn1cnc2c(C#N)c3n(c2c1=O)CCCC3`: the z-score is -0.2.

With `CCc1nnc(NC(=O)CSc2nnc(CNc3ccc(Cl)cc3)o2)s1`, the z-score was 1.29.

With `CCOC(=O)N1CCC(Nc2c(NCCCN(CC)CC)c(=O)c2=O)CC1`, the z-score was -0.0427.

`CC(=O)Nc1cccc(N(C)S(C)(=O)=O)c1` came in with a z-score of 0.102.

Consider `Cc1ccc(C(=O)O)c(C(=O)Nc2nc(C)cs2)c1`, for which the z-score was -0.407.

With `COc1ccc(NC(=O)N2CCCC2C(=O)Nc2ccccc2)cc1` (configuration not stated), the z-score is 0.0437.

On to `O=C(COc1cccc2cccnc12)N/N=C1\SCC(=O)N1Cc1ccccc1`, for which the z-score was -0.366.

With `Clc1ccc2c(c1)c1cc(Cl)ccc1n2CN1CCOCC1`, the z-score is 0.0165.

Consider `COc1cccc(OC)c1C(=O)NCCN1CCN(C(=O)c2c(OC)cccc2OC)CC1`, for which the z-score was -0.438.

For the molecule `CCOC(=O)CN1C(=O)C(Sc2n[nH]c(-c3cccc(C)c3)n2)CCc2ccccc21` (configuration not stated), the z-score was -0.33.

`COc1ccc(C2C=C(c3ccc(Cl)cc3)Nc3nc(NC(C)=O)nn32)cc1` (configuration not stated) had a z-score of 0.461.

The molecule `O=C(Nc1cccnc1)c1ccc(COc2cc(Cl)ccc2Cl)o1` returned a z-score of 0.117.

In the case of `Nc1cc(N)nc(SCc2nnnn2-c2ccc(Cl)cc2)n1`, the z-score was -0.0895.

Consider `CC1Cc2ccccc2N1C(=O)COC(=O)CNC(=O)c1ccc(Br)o1` (configuration not stated), for which the z-score was -0.414.

Consider `CC12CC3(C)CC(C)(C1)CC(C(=O)NC(=S)N1CCOCC1)(C2)C3`, for which the z-score was active: 8.61.

The molecule `Cc1nn(Cc2ccccc2)c(C)c1NC(=O)CSc1nc(C2CC2)nc2c1cnn2-c1ccccc1` showed a z-score of 0.136.

With `COc1ccccc1NC(=O)CCn1cccc1`, the z-score amounted to 0.0878.

In the case of `CC(NCc1ccc(-c2ccccc2)cc1)C(O)c1ccccc1` (configuration not stated), the z-score was 0.565.

Take `CCOc1cc(NC(=O)c2ccccc2C)c(OCC)cc1NC(=O)C1=Cc2ccccc2OC1`: the z-score was -0.376.

Consider `CCCCn1c(N)c(-c2nc3ccccc3s2)c2c([N+](=O)[O-])nn(CC)c(=O)c21`, for which the z-score is -0.243.
